Laboratory results taken from PubChem BioAssay AID1030 (National Center for Advancing Translational Sciences (NCATS), 2008).
The campaign covered roughly 220,000 compounds. About 16,000 (7.3%) were called active. The inconclusive results got no clear call from the source; some entries with a clear call stand among them for comparison. Calls follow the shape of the dose curve; as a rule, active = well fitted inhibition curve with a large enough effect (not every such curve was filed as active); inconclusive = small, poorly fitted or top-dose-only effect, or another doubt; inactive = no such curve, though single readings can be large or run the other way. Potencies of inconclusive entries are left out as doubtful fits.

These molecules were tested against Aldehyde dehydrogenase 1A1 (Homo sapiens) (UniProt P00352) (assay: qHTS Assay for Inhibitors of Aldehyde Dehydrogenase 1 (ALDH1A1)). Details: Purified ALDH1A1, NADH fluorescence, propionaldehyde substrate; series mostly up to 75.3 µM; activity, negative = inhibition: at the top concentration.
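For activity, negative = inhibition in this document: plate controls were no enzyme wells and a reference inhibitor.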
Potency is read from the fitted curve at half-maximal effect; tags tell the direction and shape of the fitted curve.

Chain of UniProt P00352 (P00352 whole entry, looked up): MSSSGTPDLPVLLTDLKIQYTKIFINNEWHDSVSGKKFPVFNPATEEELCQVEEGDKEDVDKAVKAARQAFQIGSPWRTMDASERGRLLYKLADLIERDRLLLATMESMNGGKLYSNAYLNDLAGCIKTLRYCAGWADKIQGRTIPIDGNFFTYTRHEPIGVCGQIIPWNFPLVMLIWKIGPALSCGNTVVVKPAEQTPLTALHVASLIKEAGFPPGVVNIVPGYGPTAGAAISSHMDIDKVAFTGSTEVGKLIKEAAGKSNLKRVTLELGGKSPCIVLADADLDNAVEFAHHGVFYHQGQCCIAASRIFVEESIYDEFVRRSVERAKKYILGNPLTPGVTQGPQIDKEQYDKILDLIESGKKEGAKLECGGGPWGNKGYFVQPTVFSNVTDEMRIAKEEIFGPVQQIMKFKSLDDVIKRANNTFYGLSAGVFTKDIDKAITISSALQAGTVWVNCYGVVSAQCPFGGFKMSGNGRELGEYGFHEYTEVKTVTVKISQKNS

How did the Potency turn out when `CN1C(=S)N(c2cccnc2)C(=O)/C1=C\c1ccc(C(C)(C)C)cc1` was run?
Its Potency is active: 7.08 µM.

Which Potency does the source give for `CCCCCCn1c(CN2CCN(CCO)CC2)nc2c1c(=O)n(C)c(=O)n2C` here?
Its Potency is active: 3.98 µM.

`CCOc1ccc(/C=N/NC(=S)NC2CC3CCC2C3)cc1` (stereo not given) was tested. Which Potency did it give?
Its Potency is inconclusive [inhibitor, partial curve].

Which Potency does the source give for `CN(C)C(=O)/C(=C\c1ccc(-c2cccc([N+](=O)[O-])c2)o1)NC(=O)c1ccccc1` here?
Its Potency is inconclusive [inhibitor, single point].

With `CC1CCc2c(sc(N)c2C(=O)OC(C)C)C1` (stereo not given) as the molecule, how does the Potency read?
The Potency was active: 11.2 µM.

`Cc1cccc(N=C2NC(=O)S/C2=C\c2ccco2)c1` was tested. Which Potency did it give?
Its Potency is inconclusive [inhibitor, single point].

`CNCCCCc1cnc(C)c2[nH]c3ccccc3c12` was tested. Which Potency did it give?
Its Potency is inconclusive [inhibitor, single point].

How did the Potency turn out when `O=C1NC(c2ccc(-c3ccccc3[N+](=O)[O-])o2)C(C(=O)c2ccccc2)C(O)(C(F)(F)F)N1` (stereo not given) was run?
The Potency was inconclusive [inhibitor, partial curve].

How did the “activity, negative = inhibition” value turn out when `COC(=O)c1ccc(NC(=S)Nc2ccccc2)cc1` was run?
Its value is inactive: -2.61%.

Which Potency does the source give for `COc1ccccc1NS(=O)(=O)/C=C/c1ccccc1` here?
Its Potency is inconclusive [inhibitor, single point].

For `COc1ccc(N2CCN(C(=O)CCc3ccc(S(=O)(=O)NCC(C)C)cc3)CC2)cc1`, which Potency is on record?
The Potency was active: 12.6 µM.

With `CCOc1ccc(CNC(=S)N/N=C/c2ccc(OC)c(OC)c2)cc1` as the molecule, how does the “activity, negative = inhibition” value read?
The value was inactive: 8.1%.

With `COc1ccc(NC(=O)CSC2=NCCN2)cc1` as the molecule, how does the “activity, negative = inhibition” value read?
The value was inactive: -8.87%.

`O=C(Nc1ccncc1)c1ccccc1-c1ccccc1` was tested. Which Potency did it give?
Its Potency is inconclusive [inhibitor, single point].

Which Potency does the source give for `COc1ccc(Cl)cc1NC(=S)N(Cc1ccccc1C)CC1CCC(C(=O)O)CC1` (stereo not given) here?
The Potency was inconclusive [inhibitor, single point].

`O=C(CS(=O)(=O)c1ccccc1)N1CCc2ccccc21` was tested. Which Potency did it give?
The Potency was inconclusive [inhibitor, single point].

With `Cc1cc(-c2ccccc2)c(C#N)c(SCC(N)=O)n1` as the molecule, how does the Potency read?
Its Potency is active: 12.6 µM.

Which “activity, negative = inhibition” value does the source give for `Cc1sc2ncn(CC(=O)NCc3ccccn3)c(=O)c2c1S(=O)(=O)N1CCOCC1` here?
The value was inactive: 5.41%.

For `CN(C)/C=C/C(=O)c1ccc(S(=O)c2ccccc2)cc1` (stereo not given), which Potency is on record?
The Potency was inconclusive [inhibitor, full curve].

With `CCCOc1ccc(N2C(=O)C3C(C(C)C)NC4(C(=O)c5ccccc5C4=O)C3C2=O)cc1` (stereo not given) as the molecule, how does the Potency read?
Its Potency is inconclusive [inhibitor, single point].

`COc1ccc(C2C(C(=O)Nc3cccnc3)=C(C)Nc3nc(-c4cccs4)nn32)cc1OC` (stereo not given) was tested. Which “activity, negative = inhibition” value did it give?
The value was inactive: -6.55%.

With `CCOc1c2ccc(C(=O)NCc3ccc(OC(F)(F)F)cc3)cc2nn1CC` as the molecule, how does the Potency read?
Its Potency is inconclusive [inhibitor, single point].

With `O=C(N/N=C/c1ccccc1)c1n[nH]c2c1CCCC2` as the molecule, how does the “activity, negative = inhibition” value read?
Its value is inactive: -1.34%.

For `N#Cc1ccc(NC(=O)c2sc3cc(C(F)(F)F)cnc3c2-c2cccs2)cc1`, which Potency is on record?
The Potency was inconclusive [inhibitor, single point].

`CC(c1ccon1)N(C)C(=O)c1ccc(OC2CCN(C(=O)C3CC3)CC2)cc1` (stereo not given) was tested. Which “activity, negative = inhibition” value did it give?
Its value is inactive: 4.83%.

With `C=CCN(C(=O)CCC(=O)O)C1CC(=O)N(c2ccc(OCCC)cc2)C1=O` (stereo not given) as the molecule, how does the Potency read?
The Potency was inconclusive [inhibitor, single point].

For `O=C(O)c1ccc(NC(=S)NC2CCCCC2)cc1`, which “activity, negative = inhibition” value is on record?
Its value is inactive: -8%.

With `CC1Cc2nc(SCC(=O)NCc3ccco3)n(-c3ccccc3)c(=O)c2S1` (stereo not given) as the molecule, how does the Potency read?
The Potency was inconclusive [inhibitor, single point].

How did the “activity, negative = inhibition” value turn out when `Cc1ccc(N2C(=O)C(F)(F)C2c2ccccc2)cc1` (stereo not given) was run?
The value was inactive: -6.33%.

With `O=C(NCc1ccco1)c1ccc(N2CCOCC2)c([N+](=O)[O-])c1` as the molecule, how does the Potency read?
The Potency was inconclusive [inhibitor, single point].

With `COc1ccc(Br)cc1/C=c1\sc2nc(-c3ccco3)nn2c1=O` as the molecule, how does the Potency read?
Its Potency is active: 28.2 µM.

For `N#C/C(=C\c1ccc(Cl)c([N+](=O)[O-])c1)c1ccccn1`, which Potency is on record?
The Potency was inconclusive [inhibitor, partial curve].

`CN1CCN(Cc2c(O)ccc3c(-c4ccccc4)cc(=O)oc23)CC1` was tested. Which Potency did it give?
Its Potency is inconclusive [inhibitor, single point].

How did the “activity, negative = inhibition” value turn out when `O=C(CO/N=C/c1ccc(OC(F)F)cc1)NC1CCCC1` was run?
Its value is inactive: 0.719%.

With `Nc1ncnc(NNC(=O)CNC(=O)c2c(F)cccc2Cl)c1[N+](=O)[O-]` as the molecule, how does the “activity, negative = inhibition” value read?
Its value is inactive: 9.01%.

`O=S(=O)(Nc1ccc2c(c1)nc1n2CCOC1)c1ccc(Cl)cc1` was tested. Which “activity, negative = inhibition” value did it give?
The value was inactive: 2.14%.

`CN1CCN(NC(=O)CC(C)(C)C)CC1` was tested. Which “activity, negative = inhibition” value did it give?
The value was inactive: -0.214%.

For `OCc1ccccc1O`, which “activity, negative = inhibition” value is on record?
The value was inactive: 5.72%.

For `O=C(c1ccco1)N1CCN(S(=O)(=O)c2ccccc2[N+](=O)[O-])CC1`, which Potency is on record?
Its Potency is inconclusive [inhibitor, single point].

`C=CCn1cc(/C=N/N2C(=O)C3C4C=CC(C4)C3C2=O)c2ccccc21` (stereo not given) was tested. Which Potency did it give?
Its Potency is active: 25.1 µM.

Which “activity, negative = inhibition” value does the source give for `Cc1ccc(CN2C(=O)C(C)Oc3ccccc32)cc1` (stereo not given) here?
The value was inactive: 7.18%.

For `COc1ccccc1N1CCN(CC(=O)c2c(C)[nH]c3cc(C)ccc23)CC1`, which Potency is on record?
The Potency was inconclusive [inhibitor, single point].

With `C#CCSc1[nH]c(=O)cc(C)c1C#N` as the molecule, how does the Potency read?
Its Potency is inconclusive [inhibitor, single point].

Which Potency does the source give for `Cc1ccccc1OCC(=O)Nc1ccc2c(c1)C(=O)c1ccccc1C2=O` here?
Its Potency is active: 17.8 µM.

`N#CC1=C(O)CCCn2c1nc1ccccc1c2=O` was tested. Which Potency did it give?
The Potency was inconclusive [inhibitor, single point].

Which Potency does the source give for `CC(=O)c1cccc(NC(=O)c2cc3nc(C)cc(C)n3n2)c1` here?
Its Potency is inconclusive [inhibitor, single point].

For `c1csc(C2Nc3ccccc3-c3nc4ccccc4n32)c1` (stereo not given), which Potency is on record?
The Potency was inconclusive [inhibitor, partial curve].

For `CC1(C)CC(=O)c2c(oc3ccc(NS(=O)(=O)c4cccc5cccnc45)cc23)C1`, which Potency is on record?
The Potency was inconclusive [inhibitor, partial curve].

With `COc1cc2c(cc1OC)C(=O)CC(C)S2` (stereo not given) as the molecule, how does the Potency read?
The Potency was inconclusive [inhibitor, partial curve].

With `Cc1ccc2cc(C(c3nnnn3C3CCCC3)N(Cc3ccccc3)Cc3ccco3)c(=O)[nH]c2c1` (stereo not given) as the molecule, how does the Potency read?
The Potency was inconclusive [inhibitor, partial curve].

Which Potency does the source give for `CC1(C)Cc2c(ccc3ccccc23)C(c2cc3ccccc3oc2=O)=N1` here?
Its Potency is inconclusive [inhibitor, single point].

With `C/C(=N\NC(=S)NC1CCCCC1)c1cccs1` as the molecule, how does the Potency read?
Its Potency is inconclusive [inhibitor, single point].

With `COc1ccc(NC(NC(=O)c2ccc(OC)cc2)C(Cl)(Cl)Cl)cc1` (stereo not given) as the molecule, how does the Potency read?
Its Potency is inconclusive [inhibitor, single point].

With `O=C(Nc1ccc2nc3n(c(=O)c2c1)CCCC3)c1cc([N+](=O)[O-])ccc1F` as the molecule, how does the Potency read?
The Potency was inconclusive [inhibitor, single point].

`CC12CCC(C(=O)NCc3ccc4c(c3)OCO4)(C(=O)C1=O)C2(C)C` (stereo not given) was tested. Which Potency did it give?
The Potency was inconclusive [inhibitor, single point].

With `Cc1ccc(S(=O)(=O)Nc2cnn(-c3ccccc3)c(=O)c2Cl)cc1` as the molecule, how does the Potency read?
Its Potency is inconclusive [inhibitor, single point].

With `COc1ccc(Br)c(C(=O)Nc2ccc(F)cc2)c1` as the molecule, how does the “activity, negative = inhibition” value read?
The value was inactive: 3.05%.

How did the Potency turn out when `CC1Cc2nc(SCC(=O)N3CCCc4ccccc43)n(C)c(=O)c2S1` (stereo not given) was run?
The Potency was inconclusive [inhibitor, single point].

Which Potency does the source give for `NNS(=O)(=O)c1ccc(Cc2ncc(C(F)(F)F)cc2Cl)s1` here?
The Potency was active: 3.16 µM.

For `Cc1cc(/C=N/NC(N)=S)c(C)n1-c1cccc(Cl)c1`, which Potency is on record?
The Potency was active: 25.1 µM.

Which “activity, negative = inhibition” value does the source give for `CC1CCN(S(=O)(=O)c2ccc(S(=O)(=O)N3CCC4(CC3)OCCO4)cc2)CC1` here?
Its value is inactive: -4.16%.

How did the Potency turn out when `CCOC(=O)c1[nH]c(CSc2nnnn2-c2ccccc2C)c(C(=O)OCC)c1C` was run?
Its Potency is active: 3.55 µM.

`CNC(=O)[C@H]1O[C@@H](n2cnc3c(NCc4cccc(I)c4)nc(Cl)nc32)[C@H](O)[C@@H]1O` was tested. Which “activity, negative = inhibition” value did it give?
Its value is inactive: -9.98%.

`COc1ccc(NC(=O)CN2CCN(c3nc(-c4ccc(F)cc4)cs3)CC2)c(OC)c1` was tested. Which “activity, negative = inhibition” value did it give?
The value was inactive: 2.93%.

With `CCC1CCCCN1Cc1nc2c(c(=O)n(C)c(=O)n2C)n1CCCc1ccccc1` (stereo not given) as the molecule, how does the Potency read?
Its Potency is inconclusive [inhibitor, partial curve].

`Cc1noc(C)c1COC(=O)c1cc2ccccc2cc1O` was tested. Which Potency did it give?
The Potency was inconclusive [inhibitor, single point].

For `COc1ccc(S(=O)(=O)N(CCCN2CCOCC2)Cc2cccc3ccccc23)cc1`, which Potency is on record?
Its Potency is active: 6.31 µM.

With `Cc1ccc(-c2csc(=S)[nH]2)cc1` as the molecule, how does the Potency read?
Its Potency is active: 14.1 µM.

`Cc1ccccc1-c1ccc2ncnc(NCCN3CCOCC3)c2c1` was tested. Which Potency did it give?
The Potency was inconclusive [inhibitor, partial curve].

With `COCCN1Cc2cccc(C(=O)N3CCN(c4cc(C)ccc4C)CC3)c2C1=O` as the molecule, how does the Potency read?
Its Potency is inconclusive [inhibitor, single point].

Which Potency does the source give for `COc1ccc(Nc2nc(-c3cccs3)cs2)cc1` here?
Its Potency is inconclusive [inhibitor, single point].

`COc1cccc(CNC(=O)Cn2cc3c(n2)CCCCC3)c1` was tested. Which Potency did it give?
The Potency was inconclusive [inhibitor, single point].

`CCNc1nnc(-c2ccncc2)s1` was tested. Which Potency did it give?
Its Potency is inconclusive [inhibitor, partial curve].

For `O=C(Nc1ccc2c(c1)OCCO2)c1ccc(Br)o1`, which Potency is on record?
Its Potency is inconclusive [inhibitor, single point].

Which Potency does the source give for `O=C(NNC(=S)Nc1ccc(Br)cc1Cl)c1ccncc1` here?
The Potency was active: 17.8 µM.
